Among all 150,000 compounds or so, about 540 (0.36%) showed an effect of 50% or more. Some of the results follow.
tested on: Plasmodium falciparum; test: Primary screen in NF54 nanoGlo assay, in single point, at 2uM, 72h; a lower Z score goes with more inhibition; format: functional, Erythrocyte; conditions: timepoint 72 hour

SMILES | % Inhibition [%] | Z score
O=C(Nc1cc(Cl)cc(Cl)c1)C(F)(F)F | -8 | 0.87
Cc1cc(C(=O)NC2(c3ccccc3F)COC2)no1 | 7 | -1.46
CC(=O)N1CCN(C(=O)c2cnn(-c3ncc(C)c(-c4ccc(F)cc4)n3)c2-c2cccs2)CC1 | -19 | 2.51
COc1cc(-c2nc(=O)c(CCC(=O)NC3CC3)n[nH]2)ccc1OCc1cccc(F)c1 | 24 | -3.45
CCCN1CCN(C(=O)Cc2ccon2)c2cc(F)ccc21 | -3 | 0.56
CC(C)c1cc(CN(C)c2cc([C@H]3C[C@H](N)C3)ncn2)on1 | -9 | 1.63
CC[C@H](NC1CCCCCC1)c1nc(C)c[nH]1 | -1 | 0.1
O=C1C[C@H](Nc2ccc(N3CCOCC3)cc2)C(=O)N1 | -16 | 1.97
O=C(c1ccc(F)c(Cl)c1)N1CC2CC1CO2 (configuration not stated) | -18 | 2.09
Cn1nc(C2CCC2)cc1NC(=O)C1CC2C=CC1C2 (configuration not stated) | -6 | 0.99
CCN(CC)S(=O)(=O)c1cc2c(cc1N1CCCC1)Oc1ccccc1NC2=O | -14 | 2.01
O=C(NCCc1cnn(-c2ccccc2)c1)c1cncc(Br)c1 | -2 | 0.47
O=C1NCCN(C(=O)NC2CCc3cn[nH]c3C2)C1c1ccccc1 (configuration not stated) | 12 | -1.51
O=C(Cn1cc(-c2ccccc2)c2ncn(C3CC3)c(=O)c21)Nc1ccc(Cl)cc1F | 7 | -1.06
O=C(Nc1nc(-c2ccc(Br)cc2)cs1)C1CCCC1 | -4 | 0.49
Cc1cc2cc(C(=O)N3CCS(=O)(=O)C[C@@H]3C)oc2cc1C | 5 | -0.97
CCn1ncc(CNc2ncc(C)cc2Br)n1 | -7 | 0.74
CC(=O)N1CC[C@H](NCC2(C)OCCO2)c2ccc(F)cc2C1 | -13 | 1.42
CN(Cc1ccccc1)C(=O)[C@H]1CCCN(c2ncnc3c2nc2n3CCCCC2)C1 | -9 | 1.46

SMILES | % Inhibition [%] | Z score
CC(=O)N1CCC(C(=O)Nc2cc(C(F)(F)F)c[nH]c2=O)CC1 | -7 | 1.06
CC(NC(=O)c1ccc2ncsc2c1)C1CCCO1 (configuration not stated) | -5 | 0.63
O=C(Cc1noc2ccccc12)N[C@H]1CCCCNC1=O | -11 | 1.7
O=C(Cc1ccc(O)cc1)N1CCC(n2ccnn2)CC1 | -8 | 1.45
COCC(=O)NC[C@@H](c1ccco1)n1cccn1 | 2 | -0.26
CC(C)(C)c1ccc(S(=O)(=O)N2CCC(C(=O)NCc3cscn3)CC2)cc1 | -9 | 1.54
NC(=O)c1ccc(CC(=O)N2CC3(CC3)Oc3ccccc32)cc1 | -4 | 0.7
COc1ccc(CNC(=O)c2nc3cccnc3n(C)c2=O)cc1 | -5 | 0.51
CCC(NC(=O)N1CCC(OCC(C)C)C1)c1nccs1 (configuration not stated) | -21 | 2.52
COc1ccnc(Cn2c(C)cc(=O)cc2O)c1OC | -9 | 1.62
CCCc1noc(CN(C)C(=O)NCCc2noc(CO)n2)n1 | 1 | -0.28
C=CCN(C)C(=O)c1cnc(CC)nc1 | -8 | 0.79
O=C1OCCC1N1CCCC(c2ccn[nH]2)C1 (configuration not stated) | -3 | 0.43
CCOc1ccc(NC(=O)Cc2c(O)nc3ccccc3c2O)cc1 | -9 | 1.39
O=C(Cc1ccsc1)N1CCO[C@H](C(=O)N2CCC(F)(F)CC2)C1 | -9 | 1.05
C[C@](O)(CCc1ccccc1)CNC(=O)COc1ccc(Cl)cc1 | -3 | 0.43
CC(C)OCCNC(=O)NC[C@H]1CCN(C)c2ccccc21 | -6 | 0.64
CC(C)n1nc(C(=O)N2CCCCC2)c2c1CCOC2 | -10 | 1.29
Cc1cccc(NC(=O)C(F)(F)F)c1 | -6 | 0.8

SMILES | % Inhibition [%] | Z score
Cc1ccc2c(c1)CCCN2C(=O)c1cnc2onc(C)c2c1 | 10 | -1.66
Cc1[nH]ccc(=O)c1OCC(=O)Nc1ccccc1F | -4 | 0.56
Cc1csc2nc(CC(=O)Nc3ccnn3[C@H]3CCCOC3)cn12 | -7 | 1.34
Cn1c(CN2CCC(Cc3ccccc3)CC2)cc(=O)n(C)c1=O | -8 | 0.69
CCOc1ncccc1[C@H](C(=O)O)N1CCC(N2CCCCC2)CC1 | 2 | -0.31
CCc1nnc(CNC(c2ccccc2)C2CCCc3ccccc32)o1 (configuration not stated) | 6 | -0.85
CC(C)CN(CC(=O)N1CCCN(c2ccc(-c3ccccc3)nn2)CC1)C(=O)C1CCC1 | 1 | -0.09
Cc1cccc(N(C)Cc2ccc(C(=O)N(C)C)[nH]2)c1 | -2 | 0.38
O=C(c1cc2n(n1)CCCO2)N1CCC2C1C2C(F)(F)F (configuration not stated) | -16 | 2.66
CCOC(=O)CN(CCOC)CC(=O)NCc1cccc(Cl)c1 | -10 | 1.25
CCCS(=O)(=O)N1CCC2(CC1)N[C@@H](Cc1ccccc1)C(=O)N2CC1CC1 | -8 | 1.19
Cc1cc(C(=O)N(c2ccc(O)cc2)S(=O)(=O)c2ccccc2)cc(O)n1 | -3 | 0.6
Cc1nc(-c2cccc(NC(=O)c3nnn(-c4ccc(F)cc4)n3)c2)cs1 | -12 | 2.26
Cn1nc(-c2cnccn2)cc1CNC(=O)c1cccn(C)c1=O | 25 | -3.22
CC(C)(C)c1ccc2c(NC(=O)Cc3ccccc3C(=O)O)n[nH]c2n1 | -13 | 2.58
C[C@H](NC(=O)c1ccc(COc2ccc(Cl)cc2)cc1)c1ccccc1 | -2 | 0.34
Cc1noc(C)c1CN(C)C(=O)CCS(=O)(=O)C1CCCC1 | -8 | 0.99
O=S(=O)([O-])CCCn1cnc2ncc3c([n+]21)/C(=C/c1ccccc1)CCC3 | -7 | 1.27
